{"source": "PubChem BioAssay AID686978", "about": "(National Center for Advancing Translational Sciences (NCATS), 2013)", "note": "In all, about 420,000 compounds went through this assay and about 64,000 (15%) were called active. Inconclusive results, whose numbers are uncertain, are shown with a selection of clear calls. Calls follow the shape of the dose curve; as a rule, active = well fitted inhibition curve with a large enough effect; inconclusive = small, poorly fitted or top-dose-only effect; inactive = flat fitted curve, though single readings scatter. No potency is given beside an inconclusive call; the fits are too rough. % is scaled to controls: 0 for no effect and ±100 for the full control effect; potency is read from the fitted curve at half-maximal effect; tags tell the direction and shape of the fitted curve.", "data": [{"test": "qHTS for Inhibitors of human tyrosyl-DNA phosphodiesterase 1 (TDP1): qHTS in cells in absence of CPT; also: nearly all actives have a fitted effect of over 55% in size", "conditions": "DT40 Tdp1-/- hTDP1 cells, no CPT, ATP luminescence, 48 h; activity change, negative = growth inhibition: at 46.2 µM (top of the series) unless noted", "method_in_brief": "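Compound effects on proliferation are scored in DT40 Tdp1-/-;hTDP1 cells in the absence of CPT. ATP levels (CellTiter-Glo luminescence) are recorded after a ≥48 hr, 37 °C incubation.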", "values": [{"smiles": "Cc1cc(Br)ccc1NC(=O)CN(C)C(=O)c1cccc(S(=O)(=O)N2CCN(C)CC2)c1", "Potency": "inconclusive [inhibitor, single point]"}, {"smiles": "CCOC(=O)C1=C(C)N=C2c3ccccc3C(=O)C2C1c1ccc(Cl)cc1", "note": "(stereo not drawn)", "Potency": "inconclusive [inhibitor, single point]"}, {"smiles": "O=C(NCCCN1CCc2ccccc2C1)Nc1ccc(Cl)cc1", "Potency": "inactive"}, {"smiles": "Cc1cnc(C(=O)Nc2ccc(S(=O)(=O)NCC(C)C)cc2)cn1", "Potency": "inconclusive [inhibitor, single point]"}, {"smiles": "O=C(COC(=O)CSc1ccc([N+](=O)[O-])cc1)NCc1ccco1", "Potency": "inactive"}, {"smiles": "Cc1ccc(C(=O)OCC(=O)c2cc(C)n(CC3CCCO3)c2C)cc1", "note": "(stereo not drawn)", "Potency": "inconclusive [inhibitor, single point]"}, {"smiles": "Cc1nn(C)c(Cl)c1CN1CCC(CO)(CCOc2ccccc2)CC1", "Potency": "inconclusive [inhibitor, single point]"}, {"smiles": "C[C@@H]1CN([C@H](C)CO)S(=O)(=O)c2ccc(Br)cc2O[C@@H]1CN(C)Cc1ccc(-c2ccccc2)cc1", "Potency": "active: 16.4 µM"}, {"smiles": "Cn1c(SCC(=O)N2CCN(c3ccccc3)CC2)nnc1-c1c[nH]c2ccccc12", "Potency": "inconclusive [inhibitor, single point]"}, {"smiles": "COc1cc(C=C2NC(=O)NC2=O)ccc1O", "activity change, negative = growth inhibition": "inconclusive: -27% [inhibitor]"}, {"smiles": "COc1ccc(S(=O)(=O)N2CCOCC2)cc1C(=O)N(C)CCOc1ccc(Cl)cc1", "Potency": "active: 16.4 µM"}, {"smiles": "CC1CCCC(C)N1C(=O)c1cc(-c2ccc(Cl)c(Cl)c2)on1", "note": "(stereo not drawn)", "Potency": "inconclusive [inhibitor, single point]"}, {"smiles": "CCOC(=O)/C(C#N)=C\\c1cccnc1", "Potency": "inactive"}, {"smiles": "COc1ccc(C(=O)Cn2c(Br)nc3c2c(=O)n(C)c(=O)n3C)cc1OC", "Potency": "inconclusive [inhibitor, single point]"}, {"smiles": "CCOC(=O)c1ccccc1NC(=O)CSc1cn(CC(=O)N2CCOCC2)c2ccccc12", "Potency": "inactive"}, {"smiles": "CN1CCN(c2cc(N3CCc4ccccc4C3)c(F)cc2[N+](=O)[O-])CC1", "Potency": "active: 20.6 µM"}, {"smiles": "Nc1ncnc2nc(SCC(=O)N3CCN(c4ccccc4)CC3)[nH]c12", "Potency": "inactive"}, {"smiles": "Cc1ccccc1CSc1nc2cccnc2n1Cc1ccc(C(=O)NC2CC2)cc1", "Potency": "inconclusive [inhibitor, single point]"}, {"smiles": "CC1(c2ccccc2Br)NC(=O)N(CC(=O)N2CCc3ccccc3C2)C1=O", "note": "(stereo not drawn)", "Potency": "inconclusive [inhibitor, single point]"}, {"smiles": "COc1cccc(CN(C)C(=O)CNC(=O)c2ccc(-c3ccccc3)cc2)c1OC", "Potency": "inconclusive [inhibitor, single point]"}, {"smiles": "CCOC(=O)c1cccc(NC(=O)c2cncc(Br)c2)c1", "Potency": "inactive"}, {"smiles": "CC1CCCC(C)N1C(=O)c1ccc2c(c1)S(=O)(=O)c1ccccc1C2=O", "note": "(stereo not drawn)", "Potency": "inconclusive [inhibitor, single point]"}, {"smiles": "CC(=O)c1ccc(NC(=O)c2cc(CC(C)C)nc3ccccc23)cc1", "Potency": "inconclusive [inhibitor, partial curve, poor fit]"}, {"smiles": "Oc1c(N=NC(=S)Nc2ccccc2F)c2ccccc2n1Cc1ccccc1", "Potency": "active: 5.8 µM"}, {"smiles": "Cc1ccc(-c2nc(S(=O)(=O)c3ccc(C)cc3)c(N3CCCCCC3)o2)cc1", "activity change, negative = growth inhibition": "inconclusive: -26.4% [inhibitor]"}, {"smiles": "CCCC1(C(=O)OCC)NC(c2ccc(OC)cc2OC)C2C(=O)N(c3ccccc3)C(=O)C21", "note": "(stereo not drawn)", "Potency": "inconclusive [inhibitor, single point]"}, {"smiles": "CN1CCN(S(=O)(=O)c2ccc(NS(=O)(=O)c3ccccc3)cc2)CC1", "Potency": "inactive"}, {"smiles": "CCCCNC(=O)C[C@@H]1C[C@@]2(C(=O)OC)CCCCC=C2N(CCC2=CCCCC2)C1=O", "Potency": "active: 18.4 µM"}, {"smiles": "O=C(NCc1ccccc1)c1cc(C2CCCCN2C(=O)c2ccc3c(c2)CCO3)on1", "note": "(stereo not drawn)", "Potency": "inconclusive [inhibitor, single point]"}, {"smiles": "O=C(O)c1cc2cc(F)ccc2[nH]1", "Potency": "inactive"}, {"smiles": "O=C(NNc1nc2c(F)cc(F)cc2s1)c1ccccc1", "Potency": "inactive"}, {"smiles": "COC(=O)C1=C(c2ccccc2)c2ccccc2S(=O)(=O)N1CC(=O)Nc1ccc(OC)cc1OC", "Potency": "inconclusive [inhibitor, single point]"}, {"smiles": "O=C(Nc1ccccc1N1CCN(c2ccc(F)cc2)CC1)C1CCCCC1", "Potency": "inactive"}, {"smiles": "O=C1CC(C2CCCO2)C(=O)N1c1ccc(Cl)c(Cl)c1", "note": "(stereo not drawn)", "Potency": "inactive"}, {"smiles": "O=C1COc2ccc(-c3csc(-c4ccc(Cl)cc4)n3)cc2N1", "Potency": "inconclusive [inhibitor, single point]"}, {"smiles": "Cc1cccc(OCCC(=O)NNC(=O)Cn2nc(C)cc2C)c1", "Potency": "inactive"}, {"smiles": "COc1ccc(C2=Nn3c(nnc3-c3cccnc3)SC2)cc1", "activity change, negative = growth inhibition": "inconclusive: -31.2% [inhibitor]"}, {"smiles": "N#Cc1cc(-c2ccccc2)nnc1Sc1ccc(F)cc1", "activity change, negative = growth inhibition": "inconclusive: -30.8% [inhibitor]"}, {"smiles": "CC(C)C(NS(=O)(=O)c1ccc2c(c1)C(C)(C)C(=O)N2C)C(=O)NCc1ccccc1Cl", "note": "(stereo not drawn)", "Potency": "inactive"}, {"smiles": "Cc1ccc(Nc2nc(-c3ccc(S(=O)(=O)N4CCOCC4)cc3)cs2)cc1", "Potency": "inconclusive [inhibitor, single point]"}, {"smiles": "COC1OC(CO)C(N(C)C(C)=O)C1O", "note": "(stereo not drawn)", "Potency": "inactive"}, {"smiles": "CC(CNCCCn1ccc(NC(=O)OCc2ccccc2)nc1=O)c1ccccc1", "note": "(stereo not drawn)", "Potency": "inconclusive [inhibitor, single point]"}, {"smiles": "CCn1c(C)nc2cc(C(=O)NNC(=S)Nc3ccccc3Cl)ccc21", "Potency": "inactive"}, {"smiles": "COc1ccccc1/C=C/C(=O)Nc1ccc2c(c1)CCC2", "Potency": "active: 11.6 µM"}, {"smiles": "COc1ccc(C2=CC(c3ccc(Cl)cc3)n3cnnc3N2)cc1OC", "note": "(stereo not drawn)", "Potency": "inconclusive [inhibitor, single point]"}, {"smiles": "COc1ccc(CCN2CC(C(=O)NCc3ccccc3)CCC2=O)cc1", "note": "(stereo not drawn)", "Potency": "inactive"}, {"smiles": "C(=C\\c1ccnc2ccccc12)/c1cccnc1", "Potency": "active: 12.6 µM"}, {"smiles": "O=C(Oc1csc(=S)n1C(=O)c1ccccc1)c1ccccc1", "Potency": "inconclusive [inhibitor, single point]"}]}]}
